Publication PMC11911400, “Mechanism of ASF1 engagement by CDAN1” (Nature Communications, 2025)
Residue numbers refer to the chain shown, from its start. No constants are given. Whether binding was seen depends on the method and setting. In cells and extracts the contact can be indirect. Some binding calls cover weakened binding; strength is not graded here. For some of these results: Tags and fused reporters may be left off the sequences shown.

By UniProt entry, the sequences of proteins in these tests, tags left out. Where a name states a change or a piece, a line headed by the entry shows the natural chain unless it says otherwise. Chains listed by the source or under a name are the forms on record and can include a tag or linker.
UniProt Q9Y294: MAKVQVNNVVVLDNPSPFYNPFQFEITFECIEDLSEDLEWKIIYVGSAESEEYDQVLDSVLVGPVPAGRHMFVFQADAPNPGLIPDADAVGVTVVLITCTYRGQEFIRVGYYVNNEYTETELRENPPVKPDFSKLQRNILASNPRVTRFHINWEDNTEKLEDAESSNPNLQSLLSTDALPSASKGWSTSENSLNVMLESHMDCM
FLAG-ASF1A N > B (ASF1A with the NTD of ASF1B) (Q9Y294, form named): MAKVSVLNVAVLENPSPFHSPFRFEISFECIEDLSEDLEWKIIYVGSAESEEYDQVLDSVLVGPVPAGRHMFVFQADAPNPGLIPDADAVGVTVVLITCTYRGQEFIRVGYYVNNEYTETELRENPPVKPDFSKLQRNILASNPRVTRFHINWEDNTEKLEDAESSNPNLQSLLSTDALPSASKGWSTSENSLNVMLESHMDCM
UniProt Q9NVP2: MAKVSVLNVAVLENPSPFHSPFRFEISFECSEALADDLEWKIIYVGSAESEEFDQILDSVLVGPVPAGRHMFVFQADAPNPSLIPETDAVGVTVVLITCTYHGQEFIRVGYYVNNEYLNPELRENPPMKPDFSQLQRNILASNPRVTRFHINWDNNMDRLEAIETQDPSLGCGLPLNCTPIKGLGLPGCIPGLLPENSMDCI
FLAG-ASF1B N > A (ASF1B with the NTD of ASF1A) (Q9NVP2, form named): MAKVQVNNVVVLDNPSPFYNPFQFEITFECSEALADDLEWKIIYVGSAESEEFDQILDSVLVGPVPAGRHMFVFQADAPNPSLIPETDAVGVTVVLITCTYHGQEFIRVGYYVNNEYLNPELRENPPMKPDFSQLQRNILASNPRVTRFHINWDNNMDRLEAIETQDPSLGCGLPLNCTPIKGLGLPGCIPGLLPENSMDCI

Key:
[1] = target: T1, endogenous CDAN1 with a C-terminal HaloTag-FLAG (HF) tag (human (endogenous in Flp-In 293 T-REx)) (UniProt Q8IWY9); assay: co-IP; anti-FLAG M2 agarose IP of endogenously HaloTag-FLAG tagged CDAN1 or CDIN1 from Flp-In 293 T-REx lysates; IP buffer 50 mM HEPES pH 7.5, 100 mM KOAc, 2.5 Mg(OAc)2, 1% Triton X-100, 1 mM DTT; immunoblotting
T1 sequence: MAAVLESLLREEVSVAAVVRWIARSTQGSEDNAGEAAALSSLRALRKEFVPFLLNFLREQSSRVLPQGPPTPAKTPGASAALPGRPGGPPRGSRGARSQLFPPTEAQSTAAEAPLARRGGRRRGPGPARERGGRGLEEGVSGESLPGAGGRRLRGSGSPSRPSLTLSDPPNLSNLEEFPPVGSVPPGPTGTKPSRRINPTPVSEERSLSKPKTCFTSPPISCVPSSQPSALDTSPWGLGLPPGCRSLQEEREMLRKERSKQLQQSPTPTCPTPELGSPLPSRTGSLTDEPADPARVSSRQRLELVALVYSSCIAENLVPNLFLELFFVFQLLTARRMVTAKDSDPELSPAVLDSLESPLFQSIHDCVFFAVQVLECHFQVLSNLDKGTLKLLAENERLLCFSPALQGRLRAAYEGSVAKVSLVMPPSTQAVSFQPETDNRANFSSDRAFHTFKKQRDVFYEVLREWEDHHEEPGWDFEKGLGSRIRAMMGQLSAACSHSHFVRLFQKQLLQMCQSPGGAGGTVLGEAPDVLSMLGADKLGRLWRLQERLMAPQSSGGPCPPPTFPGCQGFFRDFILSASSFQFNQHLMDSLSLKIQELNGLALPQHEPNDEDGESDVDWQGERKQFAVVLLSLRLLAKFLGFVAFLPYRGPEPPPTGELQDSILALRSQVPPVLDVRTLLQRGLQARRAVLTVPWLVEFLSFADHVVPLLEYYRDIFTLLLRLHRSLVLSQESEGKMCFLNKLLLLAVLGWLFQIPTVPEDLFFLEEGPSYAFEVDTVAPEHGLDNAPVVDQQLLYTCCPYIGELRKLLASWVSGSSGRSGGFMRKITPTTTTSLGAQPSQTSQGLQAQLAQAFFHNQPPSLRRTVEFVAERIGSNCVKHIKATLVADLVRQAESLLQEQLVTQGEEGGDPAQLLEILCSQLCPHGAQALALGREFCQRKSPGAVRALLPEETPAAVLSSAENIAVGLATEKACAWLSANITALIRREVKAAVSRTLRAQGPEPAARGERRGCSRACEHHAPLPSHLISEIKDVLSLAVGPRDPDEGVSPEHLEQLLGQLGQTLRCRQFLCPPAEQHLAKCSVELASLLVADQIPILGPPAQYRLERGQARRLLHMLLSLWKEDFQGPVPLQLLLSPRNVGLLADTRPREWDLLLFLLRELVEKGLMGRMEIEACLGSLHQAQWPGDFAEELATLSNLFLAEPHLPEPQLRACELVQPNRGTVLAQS

[2] = target: T2, Strep-tagged CDAN1 (ST-CDAN1), wildtype (human, UniProt Q8IWY9 1-1227); assay: pull-down; Strep-Tactin pulldown of ST-CDAN1 variants co-transfected with FLAG-tagged ASF1A or ASF1B variants in Flp-In 293 T-REx cells; immunoblotting; IP buffer with 1% Triton X-100, 1 hr at 4 °C
T2 construct: Codanin-1 (CDAN1), human, 1227 residues; cDNA from Horizon Discovery/Dharmacon, its point mutation S421F corrected; same construct used in Expi293 and in Flp-In 293 T-REx cells; dimer by SEC-MALS and cryo-EM; also called Strep-CDAN1; WT CDAN1; source: Expi293, transiently transfected, in lysate and purified in complexes (anti-FLAG, Strep-Tactin); Flp-In 293 T-REx, transiently transfected, in …
T2 sequence: T1 sequence

[3] = target: T3, Strep-CDAN1 BDA2* (S194A/R195A/R196A) (human) (UniProt Q8IWY9); assay: as above
T3 sequence: T1 sequence with S194A, R195A, R196A

Q: With “endogenous ASF1A (from UniProt Q9Y294 1-204)” as the molecule, how does the binding [1] read?
A: binds

Q: Which binding [2] does the source give for “FLAG-tagged ASF1B (F-ASF1B) (from UniProt Q9NVP2 1-202)” here?
A: binds

Q: And the binding [3]?
A: binds

Q: How did the binding [3] turn out when “FLAG-tagged ASF1A (F-ASF1A) (from UniProt Q9Y294 1-204)” was run?
A: binds

Q: Which results are given for “FLAG-ASF1A N > B (ASF1A with the NTD of ASF1B) (from UniProt Q9Y294 1-204)”?
A: binding [2]: binds; binding [3]: binds

Q: How did the binding [1] turn out when “endogenous ASF1B (from UniProt Q9NVP2 1-202)” was run?
A: binds

Q: What does the source list for “FLAG-ASF1B N > A (ASF1B with the NTD of ASF1A) (from UniProt Q9NVP2 1-202)”?
A: binding [2]: binds; binding [3]: binds

B1: FLAG-tagged CDIN1 (F-CDIN1) (natural protein, UniProt Q9Y2V0 1-281, looked up)
chain: MILTKAQYDEIAQCLVSVPPTRQSLRKLKQRFPSQSQATLLSIFSQEYQKHIKRTHAKHHTSEAIESYYQRYLNGVVKNGAAPVLLDLANEVDYAPSLMARLILERFLQEHEETPPSKSIINSMLRDPSQIPDGVLANQVYQCIVNDCCYGPLVDCIKHAIGHEHEVLLRDLLLEKNLSFLDEDQLRAKGYDKTPDFILQVPVAVEGHIIHWIESKASFGDECSHHAYLHDQFWSYWNRFGPGLVIYWYGFIQELDCNRERGILLKACFPTNIVTLCHSIA
notes: C15orf41); cDNA synthesized by IDT; source: Expi293, transiently transfected, in lysate and purified in complexes (anti-FLAG, Strep-Tactin); not shown: 3xFLAG, N-terminal, kept
Q: Which binding [1] does the source give for B1 here?
A: binds
